Assay results: paper PMC11995724, “Antibiotic target discovery by integrated phenotypic and activity-based profiling of electrophilic fragments” (Cell chemical biology, 2025)
Screen size: about 3,200 compounds; about 110 (3.4%) showed an effect of 50% or more. Some of the results follow.

test system: T1, V. cholerae SAD30; parameters: species or system S. aureus MSSA476 (TSB) or V. cholerae SAD30 (LB); 384-well bacterial growth screen at 25 uM, OD600 relative to DMSO control; conditions: relative growth, OD600, LB; 25 µM; inhibitor
T1 construct: SAD30

SMILES | % of control remaining [%]
CC(Cl)C(=O)NCc1ccc(C(=O)Nc2ccc(F)cc2)cc1 (stereo not drawn) [7-G19, 4-[(2-chloropropanamido)methyl]-N-(4-fluorophenyl)benzamide] | 73.6164
Cn1nnc(CN(C(=O)CCl)C2CCCCCCC2)n1 [5-A16, 2-chloro-N-cyclooctyl-N-[(2-methyl-2H-1,2,3,4-tetrazol-5-yl)methyl]acetamide] | 107.261
C=CC(=O)N(Cc1cccc(F)c1F)C1CCCC(F)(F)C1 (stereo not drawn) [1-N13, N-(3,3-difluorocyclohexyl)-N-[(2,3-difluorophenyl)methyl]prop-2-enamide] | 77.2795
COc1ccc(NC(=O)C(C#N)=Cc2cccs2)cc1 [8-O14, 2-cyano-N-(4-methoxyphenyl)-3-(thiophen-2-yl)prop-2-enamide] | 72.5357
CC(Cl)C(=O)NC(C)(C)c1ccc(F)cc1F (stereo not drawn) [6-E21, 2-chloro-N-[2-(2,4-difluorophenyl)propan-2-yl]propanamide] | 92.9756
N#CC(=Cc1ccc([N+](=O)[O-])c(Cl)c1)C(=O)NCc1ccccc1 [8-D08, N-benzyl-3-(3-chloro-4-nitrophenyl)-2-cyanoprop-2-enamide] | 80.5574
Cl.O=C(CCl)NC(c1ccccc1)C1CC1c1ccncc1 (stereo not drawn) [7-F03, 2-chloro-N-{phenyl[2-(pyridin-4-yl)cyclopropyl]methyl}acetamide hydrochloride] | 94.3664
CC(Cl)C(=O)N(Cc1nc(C2CCCCCC2)no1)C1CC1 (stereo not drawn) [7-E05, 2-chloro-N-[(3-cycloheptyl-1,2,4-oxadiazol-5-yl)methyl]-N-cyclopropylpropanamide] | 62.6466
COc1cccc(NC(=O)C(C)Cl)c1 (stereo not drawn) [6-I03, 2-chloro-N-(3-methoxyphenyl)propanamide] | 100.863
C=CC(=O)N(CC)Cc1cccc2c1OCO2 [3-I05, N-[(1,3-dioxaindan-4-yl)methyl]-N-ethylprop-2-enamide] | 96.3242
COc1ccccc1N1C(=O)C=CC1=O [10-O10, 1-(2-methoxyphenyl)-2,5-dihydro-1H-pyrrole-2,5-dione] | 26.0277
C=CC(=O)N(Cc1c(C)cccc1C)C1CCc2nc(C)nn2C1 (stereo not drawn) [1-B11, N-[(2,6-dimethylphenyl)methyl]-N-{2-methyl-5H,6H,7H,8H-[1,2,4]triazolo[1,5-a]pyridin-6-yl}prop-2-enamide] | 89.0882
CC(C)n1cc(C2=CCCN(C(=O)CCl)CC2)nn1 [5-F05, 2-chloro-1-{4-[1-(propan-2-yl)-1H-1,2,3-triazol-4-yl]-2,3,6,7-tetrahydro-1H-azepin-1-yl}ethan-1-one] | 101.208
CCOc1ccccc1NC(=O)C(C)Cl (stereo not drawn) [6-M10, 2-chloro-N-(2-ethoxyphenyl)propanamide] | 86.1503
O=C(CCl)Nc1c(Cl)c(Cl)cc(Cl)c1Cl [4-O16, 2-chloro-N-(2,3,5,6-tetrachlorophenyl)acetamide] | 98.512
C=CC(=O)N(Cc1ccccc1)C1CCOc2ccc(OC)cc21 (stereo not drawn) [1-O17, N-benzyl-N-(6-methoxy-3,4-dihydro-2H-1-benzopyran-4-yl)prop-2-enamide] | 82.9596
O=C(CCl)NCCc1c(F)cccc1F [5-F20, 2-chloro-N-[2-(2,6-difluorophenyl)ethyl]acetamide] | 99.5272
C=CC(=O)N1CCC(C(=O)N2Cc3ccc([N+](=O)[O-])cc3C2)CC1 [2-F04, 1-[4-(5-nitro-2,3-dihydro-1H-isoindole-2-carbonyl)piperidin-1-yl]prop-2-en-1-one] | 98.2245
Cc1ccc(C=C(C#N)C(=O)Nc2ccccc2C)cc1 [8-G16, 2-cyano-N-(2-methylphenyl)-3-(4-methylphenyl)prop-2-enamide] | 72.8076
Cc1ccc(C2=NN(C(=O)CCl)C(c3cccs3)C2)cc1 (stereo not drawn) [4-O22, 2-chloro-1-[3-(4-methylphenyl)-5-(thiophen-2-yl)-4,5-dihydro-1H-pyrazol-1-yl]ethan-1-one] | 109.036
C=CC(=O)NCc1ccc(C(=O)N2CCC(c3nnc(C)o3)CC2)cc1 [2-M18, N-({4-[4-(5-methyl-1,3,4-oxadiazol-2-yl)piperidine-1-carbonyl]phenyl}methyl)prop-2-enamide] | 91.5854
CC(Cl)C(=O)N1CC(Oc2ccc(C#N)cc2)C1 (stereo not drawn) [6-J15, 4-{[1-(2-chloropropanoyl)azetidin-3-yl]oxy}benzonitrile] | 92.0656
COC(=O)[C@H]1[C@@H](C(=O)CCl)C1(C)C (racemic) [10-A11, rac-methyl (1R,3S)-3-(2-chloroacetyl)-2,2-dimethylcyclopropane-1-carboxylate] | 103.955

SMILES | % of control remaining [%]
Cc1cccc(C)c1NC(=O)CN(C)C(=O)CCl [5-A13, 2-chloro-N-{[(2,6-dimethylphenyl)carbamoyl]methyl}-N-methylacetamide] | 104.907
Cc1ccc(C)c(CN(CCO)C(=O)CCl)c1 [5-K20, 2-chloro-N-[(2,5-dimethylphenyl)methyl]-N-(2-hydroxyethyl)acetamide] | 98.1822
N#CC(=Cc1ccsc1)C(=O)NCc1ccc(Cl)cc1 [8-I15, N-[(4-chlorophenyl)methyl]-2-cyano-3-(thiophen-3-yl)prop-2-enamide] | 64.5139
C=CC(=O)NCCC(=O)N1CCN(c2nc(C)cs2)C(C)C1 (stereo not drawn) [2-F06, N-{3-[3-methyl-4-(4-methyl-1,3-thiazol-2-yl)piperazin-1-yl]-3-oxopropyl}prop-2-enamide] | 90.3503
C=CC(=O)N1CCC(C(=O)N[C@H]2CCOc3c(F)cccc32)CC1 [3-F12, N-[(4S)-8-fluoro-3,4-dihydro-2H-1-benzopyran-4-yl]-1-(prop-2-enoyl)piperidine-4-carboxamide] | 97.2064
C=CC(=O)NCc1cn(C)c2ccccc12 [1-G21, N-[(1-methyl-1H-indol-3-yl)methyl]prop-2-enamide] | 92.6756
CCCCNC(=O)C(C#N)=Cc1ccncc1 [8-P17, N-butyl-2-cyano-3-(pyridin-4-yl)prop-2-enamide] | 82.3249
CC(Cl)C(=O)Nc1ccc(NC(=O)c2cccs2)cc1 (stereo not drawn) [6-G07, N-[4-(2-chloropropanamido)phenyl]thiophene-2-carboxamide] | 83.8752
Cc1cc(C)cc(OCCN(C)C(=O)CCl)c1 [6-F03, 2-chloro-N-[2-(3,5-dimethylphenoxy)ethyl]-N-methylacetamide] | 83.4202
O=C(CCl)Cc1ccc(C(F)(F)F)cc1 [10-C19, 1-chloro-3-[4-(trifluoromethyl)phenyl]propan-2-one] | 79.6415
CC(=O)c1cccc(S(=O)(=O)N2CCN(C(=O)CCl)CC2)c1 [4-F05, 1-[4-(3-acetylbenzenesulfonyl)piperazin-1-yl]-2-chloroethan-1-one] | 103.515
C=CC(=O)N1CCN(c2nc(CC)ns2)CC1 [1-J20, 1-[4-(3-ethyl-1,2,4-thiadiazol-5-yl)piperazin-1-yl]prop-2-en-1-one] | 102.306
N#CC(=Cc1cccs1)C(=O)Nc1ccc(C(=O)O)cc1 [8-A04, 4-[2-cyano-3-(thiophen-2-yl)prop-2-enamido]benzoic acid] | 94.9694
Cc1ccc(CN(Cc2c(C)noc2C)C(=O)CCl)c(C)c1 [5-N03, 2-chloro-N-[(3,5-dimethyl-1,2-oxazol-4-yl)methyl]-N-[(2,4-dimethylphenyl)methyl]acetamide] | 109.951
O=C(CCl)NCCOc1cccc(F)c1 [6-G03, 2-chloro-N-[2-(3-fluorophenoxy)ethyl]acetamide] | 108.75
COc1cccc(NC(=O)C(C#N)=Cc2csnn2)c1 [8-K04, 2-cyano-N-(3-methoxyphenyl)-3-(1,2,3-thiadiazol-4-yl)prop-2-enamide] | 81.5092
O=C(CCl)NCC1CCCN(C(=O)C(F)(F)F)C1 (stereo not drawn) [7-N18, 2-chloro-N-{[1-(2,2,2-trifluoroacetyl)piperidin-3-yl]methyl}acetamide] | 84.0575
Cl.O=C(CCl)NC1c2ccccc2CCC1n1ccnc1 (stereo not drawn) [7-N14, 2-chloro-N-[2-(1H-imidazol-1-yl)-1,2,3,4-tetrahydronaphthalen-1-yl]acetamide hydrochloride] | 80.3568
O=C(CCl)c1cn(-c2ccc(F)cc2)nn1 [10-F05] | 0.6234
Cc1oc(C(N)=O)cc1C(=O)CCl [10-M05, 4-(2-chloroacetyl)-5-methylfuran-2-carboxamide] | 20.4169
N#CC(=Cc1ccc(O)cc1)C(=O)NCc1ccco1 [9-N10, 2-cyano-N-[(furan-2-yl)methyl]-3-(4-hydroxyphenyl)prop-2-enamide] | 90.3467
CC(Cl)C(=O)NC1CCCCCC1 (stereo not drawn) [5-O21, 2-chloro-N-cycloheptylpropanamide] | 100.704
